Some of the results follow.
system: PF3D7_0420300 AP2 domain 1 (GST-tagged); assay: gcPBM binding intensity (ln(normalized median fluorescence intensity)); higher = stronger DNA binding
In short: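 GST-tagged P. falciparum DNA-binding domains, expressed in E. coli (about 25 μg on average), were applied for 1 h to an Agilent 4 × 180k array of primer-extended double-stranded 36-bp intergenic genomic probes plus negative controls. The binding buffer was 1× PBS with 1% milk, 0.2 mg/ml BSA, 0.5% salmon testes DNA and 0.03% Triton X-100. Bound protein was detected with Alexa488 anti-GST antibody and scanned at 488 nm. Binding intensity is the highest Masliner-normalised natural-log median intensity across replicate spots of either probe orientation.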

First: TATATATAGAAACACACACACATATATATATATATT [CACACA_site4115]
Second: TATTTTATTTCAAATCTTAATAATTGTAATTCTTCA [XGTACX_negctrl_site442]
The “gcPBM binding intensity (ln)” value of the first is higher: 9.91 for the first, 8.91 for the second.

Compared with “TGTGTAATACATAATACACACATGTATATGTCGCAT [CACACA_site4757]”, “TTTTAATTAGAAATCATACACACATATATATATATA [CACACA_site174]” is lower in “gcPBM binding intensity (ln)” value: 9.43 for the first, 9.26 for the second.

Compared with “ATTTTTAAAATAAATACATGCATATATTTATATGTT [TGCATGCA_site394]”, “AAAAAAAAAGAGGCGTGTACATATATAATTTAAATT [XGTACX_site6827]” is higher in “gcPBM binding intensity (ln)” value: 9.21 for the first, 9.63 for the second.

Compared with “TGTTCTAATATTTGTTGTACATTTACATTTCTCTCT [XGTACX_site2585]”, “TTATTAAAGTATAACTGTACATGCGAGTAAAAGAAT [XGTACX_site7388]” is higher in “gcPBM binding intensity (ln)” value: 9.46 for the first, 9.63 for the second.

First: ATAATAGAAACAAACAGTACACATACCTAAAAGGAA [XGTACX_site8647]
Second: AAATAAAACAGACACACACACACATACACAAAAAAA [CACACA_site7753]
The “gcPBM binding intensity (ln)” value of the first is lower: 9.7 for the first, 10.2 for the second.

Going from “TATAAATATGTATATGCATGTGGAATATATAATTAA [TGCATGCA_site226]” to “ATATGAGTATAAAAATGTACGGAGCAACTAAATATA [XGTACX_site620]”, the “gcPBM binding intensity (ln)” value rises from 9.36 to 9.65.

Going from “TGTCACCTATTTTTTTGTACGTATGTCCATTTTTTT [XGTACX_site4368]” to “ATTACAACCACATTGACATGCAAATGTAGAGGGGGA [TGCATGCA_site694]”, the “gcPBM binding intensity (ln)” value falls from 9.71 to 9.67.

First: TTAACTTCTTTAAAATGTACATATATTAAATAATAA [XGTACX_site3391]
Second: AAAAAATATAGATGCACACACAAAAAAACAAATTAA [CACACA_site6718]
The “gcPBM binding intensity (ln)” value of the first is lower: 8.8 for the first, 9.88 for the second.

First: TTTATGTAATATACATGTACAGAATATAAAATATAT [XGTACX_site6906]
Second: TATTCTTACATCACCTCACACATTTAATATTCCTTA [CACACA_site4693]
The “gcPBM binding intensity (ln)” value of the first is lower: 9.15 for the first, 9.52 for the second.

Compared with “ATATATATATATCAGAGTACATTCTTTAAAATATAT [XGTACX_site5915]”, “AGATTTTGAAATTATAAAAAAATTTCACTTCATTTA [CACACA_negctrl_site888]” is lower in “gcPBM binding intensity (ln)” value: 9.14 for the first, 8.81 for the second.

Compared with “GTATTATTATTTTATGCATGTACATTGAATTATATT [TGCATGCA_site34]”, “TATTATATATTTAATAGTACATATAAAATAATAAGG [XGTACX_site4823]” is lower in “gcPBM binding intensity (ln)” value: 9.53 for the first, 9.12 for the second.

Going from TGGTTTATTTATTAAGTGCATAAATGCAATATATAT to “TACTATAACCCACATACACACAAAAAAAAAAAAAAA [CACACA_site4454]”, the “gcPBM binding intensity (ln)” value rises from 9.15 to 9.46.

Going from “TTTATTTTTAACAGTGCACACATAACTTAATTATAT [CACACA_site8681]” to “TATACAGATGGACACACACACATAAATAAATATATA [CACACA_site4863]”, the “gcPBM binding intensity (ln)” value rises from 9.39 to 10.

First: ATTTATATGAAAATATGTACTTATATAAATTTATTT [XGTACX_site53]
Second: AAAAAATAGAATATGGGTACTAAAAAGATACAAACA [XGTACX_site4464]
The “gcPBM binding intensity (ln)” value of the first is lower: 9.17 for the first, 9.67 for the second.

First: AAATTCGTAATAATGTGTACATAACTATACATAATT [XGTACX_site1717]
Second: GATTATTTCTAAAAAGTGCATATTTAAAAATCTCCT
The “gcPBM binding intensity (ln)” value of the first is higher: 9.29 for the first, 8.99 for the second.

Going from “ATTGTTTTGTAATATGAAAAAATTGTGTAATGTGTC [CACACA_negctrl_site1510]” to “CTAAAAAGAGAAGTGTGTCCTCAAATTAATATAATT [XGTACX_site1057]”, the “gcPBM binding intensity (ln)” value falls from 9.39 to 9.25.

Going from “TTTTTTTTTTTTGAAGTGCATGTTACGATGAACAAA [GTGCAC_site9451]” to “TCTTATATAACGAAAGTAAAATAATATGCTAAGCAT [CACACA_negctrl_site668]”, the “gcPBM binding intensity (ln)” value rises from 8.85 to 8.98.

Compared with “TATATAAAAATATACACACACAAATGTATTTATATA [CACACA_site4284]”, “AATGAATATTAAAGGAGTACACATAATAAGTAAGAA [XGTACX_site7354]” is higher in “gcPBM binding intensity (ln)” value: 9.59 for the first, 9.72 for the second.

First: GAAAAAAAAAAAAATACACACAAATTGGTATAGAAT [CACACA_site380]
Second: AAAATAGAGTTGAATGCACACATACAAATTTTTAGG [CACACA_site9188]
The “gcPBM binding intensity (ln)” value of the first is higher: 9.68 for the first, 9.32 for the second.

Compared with “ATAAATAATTTATTCACACATACAAAAGTTTACAAA [CACACA_site5666]”, “TTATTAAATTCTTTATTTAGCATATACAATAAAAGA [CACACA_negctrl_site1420]” is lower in “gcPBM binding intensity (ln)” value: 9.21 for the first, 8.71 for the second.

Compared with “TATTCCTATATACAGCGTACAAAAAATAATATGTAT [XGTACX_site8112]”, “GTTATTAAATAATTCACACACATATATATATATATA [CACACA_site2260]” is higher in “gcPBM binding intensity (ln)” value: 9.32 for the first, 9.51 for the second.

First: TATGGAACACACCTTAATATGTGATAAAATATGATA [GTGCAC_negctrl_site718]
Second: AAATATTATGTACGCACACACATTTTTGATATATAA [CACACA_site7755]
The “gcPBM binding intensity (ln)” value of the first is lower: 9.27 for the first, 9.79 for the second.

Going from “CGCAACGTGAAAATACGTACACATACATTTTTATAT [XGTACX_site330]” to “TAATCGTTTTATAAATGTACAAAATTGTTATGTTAT [XGTACX_site5147]”, the “gcPBM binding intensity (ln)” value falls from 9.23 to 9.2.

First: TTAATACATACATTCACACACACTAAATGTATATTT [CACACA_site4105]
Second: GGGGGAAGGTTGAAGGTGCTTGATGGAGAAAAATAT
The “gcPBM binding intensity (ln)” value of the first is higher: 9.8 for the first, 9.64 for the second.

Compared with “AATAGGATATGGTACATTTTTTGTATACTTTTTGTT [CACACA_negctrl_site1804]”, “ATAAATTCTATGTATACACACATATATAATATATAT [CACACA_site2689]” is higher in “gcPBM binding intensity (ln)” value: 9.41 for the first, 9.59 for the second.

Compared with “AAACAAGTAATTGTTATTATTATTATATTATTATTA [CACACA_negctrl_site402]”, “TATTTCATCTTTTAAGAAGGTACCCATATGTCATAT [GTGCAC_negctrl_site403]” is lower in “gcPBM binding intensity (ln)” value: 9 for the first, 8.96 for the second.

Compared with “ATATATATATATATTTGTACTTACATTTTTATTTAT [XGTACX_site4551]”, “AAAAATATAACCGTTACACACAAAATAATATGAGAA [CACACA_site3773]” is higher in “gcPBM binding intensity (ln)” value: 9.36 for the first, 9.75 for the second.

First: ATAATAAGGTTAAGCACACATATTACATATATAACT [CACACA_site3356]
Second: GAACGATATATTATATGTACATATATATATATATAT [XGTACX_site394]
The “gcPBM binding intensity (ln)” value of the first is higher: 9.51 for the first, 9.26 for the second.

Going from TCGTTTCATAATATTGTGCACATATATATTTACAAT to “CGTAAACGATATAAATGTACGAATATCTATATATTA [XGTACX_site8116]”, the “gcPBM binding intensity (ln)” value falls from 9.43 to 8.98.

Compared with “TATATATTGCCCTTCACACACACACCGATATATATA [CACACA_site5390]”, “AATATATAAGCTGTTCTATTCAAGAATTATATCTTA [CACACA_negctrl_site270]” is lower in “gcPBM binding intensity (ln)” value: 10.2 for the first, 9.06 for the second.

Compared with “CAAAGGAAACCTATCTGTACACATATTGGGGGAAAA [XGTACX_site3502]”, “AGAAGATTAAACATTGCACACAAAAACATATTTTCT [CACACA_site8072]” is higher in “gcPBM binding intensity (ln)” value: 9.29 for the first, 9.54 for the second.

Compared with “TAATAAAAAGTTGAGGTGCATATAGAGTTCTTCTTT [GTGCAC_site9508]”, ATATTTTATATAATAGTGCAAATAATATTAAATAAT is lower in “gcPBM binding intensity (ln)” value: 9.4 for the first, 9.24 for the second.

Compared with “ATTATAATATTTAATTGTACTTGTATTTATTCCAAA [XGTACX_site6417]”, “TGCCCTTTGGTTATAACACACATGCACCCGTAAATA [CACACA_site3842]” is higher in “gcPBM binding intensity (ln)” value: 9.17 for the first, 9.5 for the second.

Compared with “CACATAAAATAAGGTGCATGCAAACGAGAAAATAAA [TGCATGCA_site75]”, “AATAAATATATTAAAAGTACACAAATATTATTTAAT [XGTACX_site2482]” is lower in “gcPBM binding intensity (ln)” value: 9.58 for the first, 9.28 for the second.

Going from “AAGATTAAACATTGCACACAAAAACATATTTTCTAT [CACACA_site530]” to “AAAAAAAATATATTACAAAACTTAGGATCCTAATAT [CACACA_negctrl_site470]”, the “gcPBM binding intensity (ln)” value falls from 9.4 to 9.31.

Compared with “ATATATATATAATAATGTACTTATAATAGATGTGTA [XGTACX_site4677]”, “GGAAGCTAATTACACACATGCATATTTTTTTTTCAA [TGCATGCA_site548]” is higher in “gcPBM binding intensity (ln)” value: 9.33 for the first, 9.6 for the second.

First: ATAATATAGAACAATACATGCAAATGGCTTAAATTT [TGCATGCA_site521]
Second: ATGGGACAGATATATACACACATATAAATATAAATA [CACACA_site6684]
The “gcPBM binding intensity (ln)” value of the first is lower: 9.54 for the first, 9.77 for the second.

First: AAAGGGACATATATATCACACACAAAAATTAGTCCC [CACACA_site8897]
Second: TAATATCTACATATATGTACATATATATATATATAT [XGTACX_site7979]
The “gcPBM binding intensity (ln)” value of the first is higher: 9.76 for the first, 9.17 for the second.

First: TTATATATGTATTAATGTACATAGTTGAGAAAGGTA [XGTACX_site1511]
Second: TTTATTATTATATTATTTTAATTTTTCTTTAGTACA [GTGCAC_negctrl_site392]
The “gcPBM binding intensity (ln)” value of the first is higher: 9.31 for the first, 9.07 for the second.

Going from “CATTTCATTTCTTAATGTACTTTATTCCACCACATA [XGTACX_site5943]” to “ATAAATATATGAAGTTGTACAAATAATTAACATTAT [XGTACX_site5740]”, the “gcPBM binding intensity (ln)” value rises from 9.23 to 9.37.

Compared with “AAATTAAATAAATTTACACACTAAAAATTACATATA [CACACA_site1054]”, “ATTTTTTTTAATTTGTACAAATTTTGTTCACAATTT [CACACA_negctrl_site1301]” is lower in “gcPBM binding intensity (ln)” value: 9.33 for the first, 9.26 for the second.

Compared with “TACCATGTTCAAATTACACACATATAATCTAATATA [CACACA_site2008]”, “TATGTTAAAAAAAAATGTACATATGTTTTTGTTAAA [XGTACX_site4754]” is lower in “gcPBM binding intensity (ln)” value: 9.43 for the first, 9.07 for the second.

First: GACCCATTATTTTATTGTACTTTTATTATAACGTGA [XGTACX_site156]
Second: AAATGAATAATGATATACAAACAAATCATGTGTTAA [XGTACX_negctrl_site150]
The “gcPBM binding intensity (ln)” value of the first is higher: 9.55 for the first, 9.28 for the second.

Going from “TTTCCCCCATATAATGAACACACACCCTCCTCATAA [CACACA_site8110]” to “ATACATTCAAAATATACACACATATATATATAATAT [CACACA_site950]”, the “gcPBM binding intensity (ln)” value falls from 9.85 to 9.61.

“ATGTGTGTATACATCAATTATATATATATTATGTAT [GTGCAC_negctrl_site720]” was tested, and the “gcPBM binding intensity (ln)” value was 9.55.

From the supplement of paper PMC11417369
